Read-outs that look alike come from different tables or passages of the source. The name of at least one read-out is uncertain.
Columns and labels:
Assay type in all cases: in vivo
blood glucose level = assay: Blood glucose after intrarectal hog insulin gelatin capsular suppository in rabbits; conditions: rabbit, 9.6 units insulin, 10 parts enhancer
Method: Fractionated coconut oil (90 parts) and 10 parts of each of the various pyroglutamates indicated in Table 7 were uniformly mixed, and then hog insulin was gradually added to form a uniform dispersion. The dispersion was filled in a gelatin capsule for suppositoes to form a gelatin capsular suppository. The suppository contained 9.6 units of insulin. The suppository was intrarectally administered to a rabbit and the blood glucose level after administration was measured by the glucose oxidase method.
For comparison, suppositories composed of 90 parts of fractionated coconut oil, 10 parts of the various pyroglutamates indicated in Table 7 (Comparisons 89 to 102) and insulin, and a suppository composed only of fractionated coconut oil and insulin (Comparison 103) were prepared, and tested in the same way as above.

serum calcium level [1] = assay: Serum calcium after intrarectal (Asu^1.7)-eel calcitonin suppository in rats; conditions: rat, 0.7 MRC unit calcitonin, 7 parts enhancer
Method: (Asu^1.7)-eel calcitonin was gradually added and mixed with the mixture to form a uniform composition. The composition was slightly warmed, and filled into a suppository container to form a suppository for rats having a diameter of about 3 mm and a length of about 8 mm. This suppository contained 0.7 MRC unit of calcitonin. The suppository was intrarectally administered to a rat, and the concentration of calcium in the blood serum after administration was measured by using a calcium measuring kit (made by Iatoron Co.).
For comparison, suppositories (Comparisons 76 to 87) composed of 93 parts of cacao butter, 7 parts of the various pyroglutamates shown in Table 6 and caltitonin and a suppository composed only of cacao butter and caltitonin (Comparison 88) were prepared. They wre individually administered intrarectally to rats, and the calcium concentration in the serum was measured.

serum calcium level [2] = conditions: rabbit, nasal, 15 units/50 microliters calcitonin, 10 parts enhancer

Structure (SMILES) | Percent decrease of the blood glucose level from that before administration (blood glucose level; 30 min.) | Percent decrease of the blood glucose level from that before administration (blood glucose level; 1 hr.) | Percent decrease of the blood glucose level from that before administration (blood glucose level; 2 hrs.) | Percent decrease of the blood glucose level from that before administration (blood glucose level; 3 hrs.) | Percent decrease of the serum calcium level from that before administration (serum calcium level [1]; 1 hr.) | Percent decrease of the serum calcium level from that before administration (serum calcium level [1]; 2 hrs.) | Percent decrease of the serum calcium level from that before administration (serum calcium level [1]; 3 hrs.) | Percent decrease of the serum calcium level from that before administration (serum calcium level [1]; 5 hrs.) | Percent decrease of the serum calcium level from that before administration (serum calcium level [2]; 1 hr.) | Percent decrease of the serum calcium level from that before administration (serum calcium level [2]; 2 hrs.) | Percent decrease of the serum calcium level from that before administration (serum calcium level [2]; 3 hrs.) | Percent decrease of the serum calcium level from that before administration (serum calcium level [2]; 5 hrs.)
CCCCCCCCCCCCCOC(=O)C1CCC(=O)N1 (racemic) [Compound (108), Tridecyl DL-pyroglutamate] | 22.2% | 27.4% | 19.6% | 1.6% | 31.2% | 23.3% | 11.6% | 1.0% | 8.1% | 0.4% | 2.8% | 1.0%
CCCCCCCCCCCCCCOC(=O)[C@@H]1CCC(=O)N1 [Compound (120), Tetradecyl L-pyroglutamate] | 27.6% | 28.2% | 20.0% | -0.8% | 26.2% | 20.5% | 18.1% | 0.5% | 7.6% | 6.1% | 3.0% | 0.9%
CCOC(=O)[C@@H]1CCC(=O)N1 [Ethyl L-pyroglutamate, reference compound] | 3.1% | 1.4% | 0.7% | 0.3% | 4.8% | 2.1% | 0.8% | 0.7% | 1.0% | 0.8% | 0% | 0%
CCCCCCCOC(=O)C1CCC(=O)N1 (racemic) [Heptyl DL-pyroglutamate, reference compound] | 10.2% | 0.9% | 0.9% | 0.9% | 10.0% | 2.8% | 0.9% | 1.2% | 0.9% | 1.3% | 0.6% | 0.1%
CCCCCCCCCCCOC(=O)[C@@H]1CCC(=O)N1 [Compound (114), Undecyl L-pyroglutamate] | 29.8% | 28.6% | 20.1% | 0.5% | 33.4% | 25.1% | 10.3% | 0.9% | 8.1% | 7.5% | 3.8% | 0.2%
CCCCCCCCCCCCCCCCCOC(=O)[C@@H]1CCC(=O)N1 [Heptadecyl L-pyroglutamate, reference compound] | 5.5% | 4.4% | 0.9% | -1.2% | 7.5% | 2.3% | 0.9% | 0.8% | 1.5% | 0.8% | 0.2% | 0%

Source: patent US4789667A, “External pharmaceutical composition and methods of use” (priority 1984, dated 1988)
